Laboratory results reported in the supplement of paper PMC11417369.
This is one part of the list.

Tested on: PfHDP1 homeodomain (GST-tagged)
Experiment: gcPBM binding intensity (ln(normalized median fluorescence intensity)); higher = stronger DNA binding
Outline: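 Each value is the highest Masliner-normalised natural-log median intensity across replicate spots of either orientation of a probe. The probes were primer-extended double-stranded 36-bp intergenic genomic sequences on an Agilent 4 × 180k array, alongside negative controls, exposed for 1 h to GST-tagged P. falciparum DNA-binding domains expressed in E. coli. Bound protein was picked up with Alexa488 anti-GST antibody and scanned at 488 nm.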

| Sequence | gcPBM binding intensity (ln) |
| --- | --- |
| TTATTTTTTTTTTTTCGTACTTATTTATCTTGGTAT [XGTACX_site78] | 6.28 |
| AACAATATTATTGTTTGTACTCACATATATAATATA [XGTACX_site8063] | 6.46 |
| AAAAAAACATGAAACACACACAAATATATATATATA [CACACA_site1884] | 9.09 |
| TTCGTATATTATTAATGTACATTATAAAATCAATAT [XGTACX_site5751] | 6.7 |
| TGTTTTATTATTTATAGTACATAAAAAAATATTGTA [XGTACX_site8963] | 6.16 |
| ATATATATGTGAAAATCACACATTGCTTATCTGTAA [CACACA_site6044] | 6.3 |
| AAGGCATACAATACCTGTACGCAACCTTAAAAAGAA [XGTACX_site6070] | 6.32 |
| AAAAAAAAAAAAAAAAAAAAAAAAAAAATTCTATAT [GTGCAC_negctrl_site468] | 7.19 |
| TATATATATATATATGGTACAGTTTATGCCTTTTAA [XGTACX_site6695] | 9.41 |
| ATTTTCATGATAAAGGTGCAATTATTTTTATAAGAA | 9.4 |
| TTATTTATAATATATACACACTAACATTATTTATCC [CACACA_site4835] | 6.67 |
| TATAATATATACAAATGTACATATATATATATATAT [XGTACX_site4559] | 9.21 |
| GGGGTATCTTCCTATGCACACTTGTTATGTACTAAC [CACACA_site4610] | 9.25 |
| TTTTTGTTTTTGTTTTGTACTCATACATACTATCAT [XGTACX_site4210] | 7.03 |
| ATATATACGTATGAATGTATATTTGTTTGATTTTTT [CACACA_negctrl_site835] | 6.04 |
| CTTTTATTAAAATTCACACACATAAATTTTTATAAA [CACACA_site1993] | 6.44 |
| TTATGTCATAAATGCACACATATATAAATACAGATA [CACACA_site4959] | 10.3 |
| TCTTCAAACAAAAAAAATAATAAAAAGTACAAAATG [CACACA_negctrl_site363] | 6.78 |
| ATATGTGATTTCTAATGTACACAAAAAAAAAAAAAA [XGTACX_site7701] | 6.53 |
| TTTTTATTAATAGATATAAATATATAATATGAATGT [TGCATGCA_negctrl_site309] | 6.4 |
| GAAAATTTAATATAGAACGAAAGCATACACATATAT [GTGCAC_negctrl_site424] | 6.71 |
| AAATATTATAGCACCACACACTTATTTTATATATAT [CACACA_site5281] | 7.11 |
| CCATATAATATGAACAGTACACACAAAATAAATTCG [XGTACX_site7590] | 6.7 |

| Sequence | gcPBM binding intensity (ln) |
| --- | --- |
| ATATATATATATATTTGTACAGATTTATATTATAAT [XGTACX_site7612] | 9.1 |
| ACCGAAGGAATTTATAGTACACATCATAAATAAATT [XGTACX_site4100] | 6.32 |
| AATATAAAAAAAAAATGTACATATTATATATATATA [XGTACX_site5113] | 8.75 |
| AAAAATTTTTTTTCATTTGTTTTTATTCCGTAAAAA [CACACA_negctrl_site1217] | 6.27 |
| AGTTTGATTTTTTCTTATAATATATTATTATATATT [CACACA_negctrl_site376] | 7.07 |
| TATAATATAAAATAATGTACTTTGAAATATGACATA [XGTACX_site3579] | 6.1 |
| TTTACAGATACATTCACACATAAATTCATGTATAAT [CACACA_site5387] | 6.41 |
| ATTGTTATGAGAACAGCACACAAGCTACATCATATA [CACACA_site8192] | 6.57 |
| ATATATAATTTTTGTTGTACATTATAAAAATAATTA [XGTACX_site2738] | 6.3 |
| GCGGCGGTATCATGCACACGTATATATTGTAACAGT [CACACA_site4958] | 8.63 |
| TCATTGAAAAAAATGTGTACTCATCAAGTATATATT [XGTACX_site6430] | 6.54 |
| TTTTAAAAAAATAAAAAATAATAAAAAAAATAAAAA [CACACA_negctrl_site1693] | 6.33 |
| AATGATATTATCTCTTCACACACTCACATACAGACA [CACACA_site8335] | 6.67 |
| AATATGATTATTACCCGTACATATTACCTTATGGTA [XGTACX_site1714] | 6.34 |
| TATATAAGGATATATACACACATATAGGTATTTATA [CACACA_site7092] | 6.5 |
| TCAGGAATATAAAGTGCACACATAATTTGGGGGCAA [CACACA_site7974] | 9.05 |
| GTGCATATGTAGATATGTACATATTTATTTATTATT [XGTACX_site7343] | 6.8 |
| AAAAATAAATAAAGTGGTACATAAAAAAGAGAAATT [XGTACX_site874] | 7.1 |
| ATATATATATATATATGTACATATATATACATATAT [XGTACX_site6987] | 9.22 |
| ATTCACGTGTCTTAAAAAAAAAAAAAAGAAAAAAAG [CACACA_negctrl_site573] | 6.13 |
| TCCTTAAAATATATCACACATTTCGTTCATTTATAA [CACACA_site4346] | 6.65 |
| AGTATACGAATAAAATGTACATACAAATTGTTGTAA [XGTACX_site36] | 6.54 |
| TATATATATATATCCACACACATACAGATATTAAGA [CACACA_site4214] | 9.09 |

| Sequence | gcPBM binding intensity (ln) |
| --- | --- |
| ATAATATATATACAAACACACAATTGTGTCCACATT [CACACA_site1747] | 7.03 |
| TGTACATATATATAATATATATATCATCATATTTTC [CACACA_negctrl_site1750] | 6.61 |
| ATTATATAATTGTCTTCACACACACCGATATATATA [CACACA_site8883] | 6.99 |
| ATAAGAAAAAAGAACTGTACTAATAAAATATAAAAA [XGTACX_site3715] | 6.36 |
| GGATTTATTATATATACACACATACATATATATATA [CACACA_site8669] | 8.73 |
| AAAGGATACAGACACACACACACATATATATATATA [CACACA_site906] | 9.12 |
| ATACATAAAATTAAAACACACATTTGATTAAATACG [CACACA_site7088] | 6.6 |
| ATCAAGCGCAATGTGGTGCGTAAATTTTGTATTATA | 7.83 |
| GTCTAAGCTTATAGGCGTACACATGAATATGGATGT [XGTACX_site2439] | 6.58 |
| GTGTTAAATGTTTACACACAAACTTGCAATAATTAT [CACACA_site3825] | 8.28 |
| AAAAATTATAACTAAAAAAATCACACAAAATATTTT [TGCATGCA_negctrl_site28] | 6.26 |
| TTGCATTTATTATACACACACAAAAAAATATATATA [CACACA_site238] | 7.12 |
| TATGTATTTAAGTTACCTGAACGTTCAGGTAAAATT [CACACA_negctrl_site1393] | 6.38 |
| GTAATTTTAAAGAAAAGTACACATTTATTAATTATT [XGTACX_site4468] | 5.91 |
| AAATCAAACTTTGGTGTGCACAAATATATACATATA [GTGCAC_site9986] | 11 |
| AAAAATGAGTGACACACACACATATAAATATAAATA [CACACA_site7115] | 6.22 |
| TTTTTTTTACATTCTGCACACAATTTATTTTTTTTT [CACACA_site36] | 9.09 |
| TTTATTCTCAAACACACACACATATATATATATATA [CACACA_site2895] | 9.36 |
| TTTTATATATATATCACACACACACCCATGTTTTAA [CACACA_site79] | 7.01 |
| TAATTAATAATAATATGTACATATTAATATATTATT [XGTACX_site6900] | 6.31 |
| TGATAAAGTAAATATACATGCGATTAGTTATATATA [TGCATGCA_site720] | 6.36 |
| TTGATAATTATATAATGTACTCATTATAATATGATG [XGTACX_site7813] | 6.26 |
| TATAAAAAAAAAAAAAGTACTAACTTAAAACAATTT [XGTACX_site7969] | 5.92 |

| Sequence | gcPBM binding intensity (ln) |
| --- | --- |
| AGTTTGTCAATCAACACACACCTATTTATTATAGAT [CACACA_site7777] | 6.16 |
| TATTTATTCTCCAACACACACACATATATTTATATA [CACACA_site7376] | 6.84 |
| TAAAAAAAAAGAAGGGGTACATGGATAATATATAAA [XGTACX_site8386] | 6.75 |
| CATATATGGTTATATACATGCACCATTATATTATTA [TGCATGCA_site520] | 8.66 |
| GCAGGCTAAAAAATTACACACGAAAAAAATGAATTT [CACACA_site3417] | 6.3 |
| TATATAATATTTTTCACACACCATTTCCTTAAACAC [CACACA_site4862] | 6.8 |
| TGTATAACCTGTGTTACACACATTATGATTTATATA [CACACA_site525] | 6.48 |
| TTATATGTTTTACAACGTACACAAAAAAAACTTATA [XGTACX_site4413] | 6.43 |
| CATTTTTACCGGTACTGTACATAAAAAAAAAAAAAG [XGTACX_site1548] | 6.54 |
| AAAAAAATGAAGAAATGTACAAATTTCATTAATTTT [XGTACX_site354] | 6.05 |
| GTGTAGTAAAATCGATGTACGTACAAATCAATTATT [XGTACX_site7662] | 6.46 |
| TATATATGTAAATGCACACATATGTGGATATACTTA [CACACA_site1699] | 10.3 |
| GCGAGATGCTAAAATGCATGTTGGGCATTAGTTAAA [TGCATGCA_site586] | 6.32 |
| TATAATAATTCTTTGAGTACTTAAACATGTGAAATT [XGTACX_site955] | 7.08 |
| ATATTAATATATGTGGCACACATGTGGAGTCCTATT [CACACA_site213] | 6.93 |
| TATCATTTCTAAAAAGGTACACATACATCATATATT [XGTACX_site3386] | 6.68 |
| TGAACAGACAAATACACACACTCAAAAAAAAAAAAG [CACACA_site7287] | 6.49 |
| GCACTCGTAAAAAGCACACATATAAAAACATTTATA [CACACA_site322] | 6.49 |
| CAATGCTTTATCAATACATGCATATATATAGAAATA [TGCATGCA_site857] | 6.46 |
| TTCTTTTTTCAACACACACACACAAGAAAATATATA [CACACA_site9019] | 7.1 |
